The source gives no read counts; variants with many changes may rest on few reads.

Sequences and labels used below:
B1: LINE1-mini (parent)
chain: GGCAGAGCUCAACACAGCGUGGCAAAGUGGCUGUGGCUAGACUGCC

The variants in this series derive from B1. The experiment in a line: self-cleavage, relative activity (ratio to wild type); higher = more cleavage; in vitro, sequencing; the parent is a self-cleaving ribozyme.
Take C3A A39G U43C: the self-cleavage turned out to be 0.09.

Consider C3A G5C G7C G17A C18A A24C C37A, for which the self-cleavage came to 0.03. Regarding C3A G7C U34A, the self-cleavage is 0.01. The value for C3A G7C U34G was 0.1; that for C3A C8G C15U A26G G33A was 0.26. On to C3A G22U C42U, for which the self-cleavage is 0.15.

In the case of C3A C37U A41C, the self-cleavage was found to be 0.04. The value for C3A G22A A26U C37U was 0.09; that for C3A C8U C10G C18A U20A G35A was 0.02. The value for C3A G7A U20A U38A was 0.08; that for C3A G5C C23U was 0.09. The value for C3A C31A C45U was 0.04. On to C3A C13A G35U, for which the self-cleavage is 1.26.

Regarding C3A G7A C13G G22C, the self-cleavage was 0.77. With C3A C8A A16U G17A G40C, the self-cleavage worked out at 0.05. The value for C3A G5A A6U U9C A14U A24U C37A was 0.05. The value for C3A G7C C13U U28C was 0.34; that for C3A C8G A16U G19A G21C G44A was 0.08; that for C3A G5U C23A G33A was 0.17.

Consider C3A G7C A24G, for which the self-cleavage came to 0.07. As for C3A G22C U32C, the self-cleavage came to 0.16.

For the variant C3A C15A C23G A39C, the self-cleavage worked out at 0.03. Regarding C3A G22U A24C, the self-cleavage stood at 1.39. As to C3A G7A C10A G36U, the self-cleavage was found to be 0.02. The value for C3A G17U G27C U28A C46A was 0.16; that for C3A A16U U28A was 0.03; that for C3A C37A A39C was 0.29. Consider C3A C23A A25U G36A G40C, for which the self-cleavage worked out at 0.05. Regarding C3A A16U U43A, the self-cleavage was 0.13. The value for C3A C13A A26U was 1.94. For the variant C3A G7C C23U G44A, the self-cleavage came out at 0.04. The value for C3A G7C C18A was 0.01; that for C3A G19A A24G C42U was 0.34. The value for C3A C10A A24G was 0.02.

Take C3A C8G A12G C13A G22C: the self-cleavage was 0.83. The value for C3A G5C G29C C31U was 0.26. In the case of C3A C18U G19U G33U, the self-cleavage was determined as 0.1. The value for C3A C23U U28G was 0.11; that for C3A G5A G19A C31G G36A was 0.76; that for C3A C13G C18G G29U G30U A41G was 0.13.

Turning to C3A C13U C15G, the self-cleavage is 0.17.

For the variant C3A C31A U38C A39C, the self-cleavage came to 0.05. Consider C3A G7C G22A, for which the self-cleavage stood at 0.1. The value for C3A G19C C42G G44C was 0; that for C3A A26C G30U G35C G36A C37U U38A was 0.21; that for C3A C13G G36C U38A G44A was 0.11. With C3A A26C C31G C46U, the self-cleavage amounted to 0. The value for C3A C13U U20G A24C A25C G27C was 0.03. The value for C3A C8G C13G G36U was 0.03; that for C3A C10G U20C G21U A26G A39C was 0.01.

With C3A G19A C23G G44A, the self-cleavage worked out at 0.5. The value for C3A A24U A25U C45A was 0.23; that for C3A C15U G29U G33C was 0.46. The value for C3A C8A A16C G22A C42U was 0.88; that for C3A A26U C37A was 0.56; that for C3A A26U C37G was 0.21.

Regarding C3A C13A C42A, the self-cleavage turned out to be 0.29. Take C3A G22U C45A: the self-cleavage stood at 0.36.

With C3A G21U G27U G40A, the self-cleavage came to 0.08. The value for C3A A24C G44U was 1.92. The value for C3A G7A A16U C18A G19A was 0.2; that for C3A G17U G22C U28A G33U was 0.09. Consider C3A G22C G27U G29A G30A U32G, for which the self-cleavage is 0.15. In the case of C3A G5C C31U G40U, the self-cleavage stood at 0.05. The value for C3A C23G A41U was 0.1; that for C3A C8U A25G A26U G40A C46A was 0.26. C3A G5A C8A C37G: the self-cleavage is 0.99. C3A C10A G17A G21U U38A G40C U43C C45A: the self-cleavage was determined as 0.02. The value for C3A C18A A25G C31U U38C was 0.06; that for C3A A25C C31U U38A G44U was 0.33.

In the case of C3A G5A A11G A26C G27U G40U C46U, the self-cleavage stood at 0.01.

For the variant C3A C8A U9G G21U C46A, the self-cleavage was determined as 0.08.

As for C3A C15U G17C, the self-cleavage is 0.02.

For the variant C3A C10U G33C U34G, the self-cleavage is 0.08. The value for C3A G5A G21C was 0.17. The value for C3A G7U C8A G30A C46U was 1.88; that for C3A C10U G27A was 0.05; that for C3A G17U G22U G27C C46G was 0.21.

As for C3A G5C C45U, the self-cleavage is 0.06. On to C3A G21C U38G, for which the self-cleavage is 0.03. The value for C3A C13U C31A was 0.25. Regarding C3A C13G C46A, the self-cleavage turned out to be 0.14.

As to C3A C15A G19C A25G G29U, the self-cleavage was 0.09. In the case of C3A G7C C10G A11G A41C, the self-cleavage was 0.02. With C3A A26G G33C, the self-cleavage worked out at 0.13. The value for C3A C8A A12G C23U G27C G33A G36A was 0.75.

For C3A A25G C42A, the self-cleavage was determined as 0.09.

For the variant C3A C15G G30U, the self-cleavage is 0.13. The value for C3A C8A G21C C31A G40U was 0.12; that for C3A A25C G30U G33A G40U was 0.16; that for C3A G7A C45A was 0.33. The value for C3A A26G G29A G44U was 0.86. C3A C13G A26G: the self-cleavage was found to be 0.12. The value for C3A G7U C10G C15A G35U was 0.03; that for C3A G7C C13G G29C was 0.12; that for C3A G5A C10U G36U C46A was 0.14. The value for C3A G7U A16U was 0.32; that for C3A G5U G7C A41G G44A C45A was 0.04; that for C3A G17A G44A was 0.09. The value for C3A G7A A12G G33A was 0.04; that for C3A C23U G27U was 0.47; that for C3A G21A A24U G33C C42A was 0.19.

Regarding C3A A16U C37A, the self-cleavage turned out to be 0.12. As to C3A C15A G21C G22U, the self-cleavage amounted to 0.07. The value for C3A G19C A25U U32A was 0.25; that for C3A C13U U28G was 0.98; that for C3A G7C C18A C37U was 0.27. For the variant C3A C23G G44C C46A, the self-cleavage was 0.21. The value for C3A C37G U38G was 0.02. For C3A C15A G29A C37A, the self-cleavage came out at 0.21.

On to C3A G7U A26C G30C, for which the self-cleavage is 0.12. For the variant C3A C15U C31G, the self-cleavage was 0.22.

C3A C15U C31U: the self-cleavage was determined as 0.28. The value for C3A A26C G33A C37A was 0.3. C3A A26C C31U: the self-cleavage came out at 0.04. The value for C3A G5A A16C C18U A24C C46G was 0.17. The value for C3A C10G C15U A39U was 0.02; that for C3A G7U G35A was 0.54; that for C3A G22A G30A was 0.95. The value for C3A G7C U32A was 0.09; that for C3A G17C C23G U38A C46A was 0.04. Regarding C3A G5U A6U U34A A39U, the self-cleavage is 0.09. For the variant C3A G7A U9G, the self-cleavage is 1.02.

Consider C3A C15G C23G C37U, for which the self-cleavage was found to be 0.02. With C3A A24G A25G G27U C31G C45A, the self-cleavage is 0.07. As to C3A G7A C8A, the self-cleavage worked out at 0.5. For C3A G19A A24G C31G G33U C46U, the self-cleavage stood at 0.52. The value for C3A C10U C13U U20A U34A C37A was 0.12. The value for C3A G7A G19A C31U was 1.4. Turning to C3A G5U A6C A14U, the self-cleavage was found to be 0.14.

For C3A C18U G29A, the self-cleavage is 1.64. Regarding C3A G19C C45U, the self-cleavage stood at 0.28.

With C3A C15U A25U, the self-cleavage was found to be 0.33. The value for C3A C18G U28C C45U was 0.13; that for C3A C8A G19A was 1.83. In the case of C3A C15U G27U, the self-cleavage is 0.46.

In the case of C3A C15A C31U, the self-cleavage worked out at 0.15. The value for C3A A25C G27U U38A was 0.31; that for C3A C13U C18U U20A was 0.34. The value for C3A G7U C46G was 0.18; that for C3A G7U C46U was 0.4; that for C3A G7U G27U was 0.33. The value for C3A C13U C23A G35U was 1.85; that for C3A C18A A41C C46A was 0.1.

For the variant C3A C8A C13G U34A C45U, the self-cleavage is 2.29. For C3A A24C A41U C42U, the self-cleavage was found to be 0.24. The value for C3A C23U G29U was 0.22; that for C3A G5C G33U A39C was 0.06; that for C3A C13A A25U U34C was 0.24. For the variant C3A G7C C13A G17U, the self-cleavage stood at 0.03. Turning to C3A G5A C8A A14G A26C G33U U34G, the self-cleavage is 0.87.

Regarding C3A C13A G29U G36U U38G A39G C46U, the self-cleavage amounted to 0.78.

As for C3A C18U G19A G22A A24C U28A, the self-cleavage was determined as 0.45. For C3A C10A A11U U43C, the self-cleavage was 0.01. The value for C3A C13U G36U A41U was 0.23. With C3A C13A C15G U20G C31A C45U, the self-cleavage is 0.04. The value for C3A A16U C31A was 0.15; that for C3A G5A U9A G29U was 0.34; that for C3A A25C C31G was 0.14. Consider C3A C8U G19U C31G, for which the self-cleavage was 0.15.

As for C3A C13A G19C G22C G30C G40U, the self-cleavage amounted to 0.1. The value for C3A G5C G17C G40C was 0.11; that for C3A C8U A12C G30U U43A was 0.09; that for C3A G17C C46U was 0.13.

Take C3A G5U U28A: the self-cleavage is 0.25.

With C3A G17U G36U G44U, the self-cleavage was 0.08. The value for C3A C23G C37A C45G was 0.21.

The record behind these values is the RNAGym collection of RNA variant scans (doi:10.7554/elife.90254).
